# Data reported in the supplement of paper PMC11417369.
# ± gives the standard deviation of the averaged measurements. This is one part of the list.
# Tested on: PfAP2-G AP2 domain (GST-tagged)
# Assay: gcPBM binding intensity (ln(normalized median fluorescence intensity)); higher = stronger DNA binding
# In short: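 Using an Agilent 4 × 180k array, primer-extended double-stranded 36-bp intergenic genomic probes and negative controls were exposed for 1 h to GST-fused P. falciparum DNA-binding domains expressed in E. coli. Binding was carried out in 1× PBS with 1% milk, 0.2 mg/ml BSA, 0.5% salmon testes DNA and 0.03% Triton X-100, and protein was detected with Alexa488 anti-GST antibody and a 488 nm scan. Binding intensity is the highest Masliner-normalised natural-log median intensity across replicate spots of either probe orientation.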
row,Sequence,gcPBM binding intensity (ln)
1,AATAAATTACTATGTACACACATAAGAGTATAAATA [CACACA_site6940],11.4 ± 0.91
2,AAAAAGTTACATGGTGGTACTCAAATAAAATATTCT [XGTACX_site5993],11.3 ± 0.79
3,TTGAATTAAAAACATACATGCATATATATATATATA [TGCATGCA_site319],9.84 ± 0.46
4,TTTTTTTTTTTTTGATGTACATAAATTAAGAATTAT [XGTACX_site7789],11.3 ± 0.93
5,AATATATCTTTTTACGGCAACCATATTTTTCCCATT [CACACA_negctrl_site963],10.21 ± 0.064
6,TATTAACAAAATATAGCACACATAAATATATATTTA [CACACA_site8005],9.98 ± 0.071
7,TATTATGTTATATATTGTACATGTTTATTGAAACAA [XGTACX_site5605],11.1 ± 0.59
8,TTTATATGTGAAAAAAGTACAAGGAAAAAATTAAAC [XGTACX_site7269],11.5 ± 0.92
9,TTTTTTTTAGTATGAACACACATATATATTATAAAA [CACACA_site2935],10.1 ± 0.25
10,ACGGAAAAAGAAAAGGTGCATATGGACACAATATAT,11.1 ± 0.67
11,TATTACATACAATATTGTACATATCATATTTTGAAT [XGTACX_site2191],10.8 ± 0.4
12,TTATTTTAATATAAAATACACACTACTATTATAAAT [CACACA_site1470],10.1 ± 0.11
13,TAATTATTAAAACATTGTACATTATTATAAACAATT [XGTACX_site4489],10.8 ± 0.46
14,ATATATAAATATATTACACACTTTTTCTTTTTTTTT [CACACA_site7332],9.54 ± 0.36
15,ATAGAAATATTATATTGTACGAACAGTTATTAACAA [XGTACX_site2137],11.2 ± 0.68
16,ATTATTTGTTTAAATTCACACACGTATATATATTTA [CACACA_site3050],10.3 ± 0.24
17,ACATGTAAATGGAAAAGTACTAATAACTTGTATTGG [XGTACX_site5181],11.1 ± 0.45
18,AAACAGCATGGTATACCTATAAAATATATATACTAA [GTGCAC_negctrl_site39],10.1 ± 0.18
19,TTTTCCATAAGAATTACACACAGAAAGGATAAGTAT [CACACA_site105],10.2 ± 0.18
20,CTTATATTAATTATTACACACATATTTATAAATGCA [CACACA_site6501],10.1 ± 0.37
21,TCTGAAACAAGAAAAAGTACACAAATTACAAAACTA [XGTACX_site7641],11.5 ± 1
22,AAAAAAAATTCACACTGTACAAAAGCATAAATAAAC [XGTACX_site5408],10.7 ± 0.37
23,GTATATAAATATATATATATATATATATCTATATTT [CACACA_negctrl_site871],9.57 ± 0.028

row,Sequence,gcPBM binding intensity (ln)
1,GTATTTTTACAAATTTGTACATATATATGAATATAC [XGTACX_site6717],11 ± 0.49
2,AAAGAAAAATTAACATGTACAAAAATTACTTGTTCA [XGTACX_site6725],10.8 ± 0.43
3,TTTTGTAAAAAGAAAAATTAGAATATATCGTATATA [XGTACX_negctrl_site617],9.615 ± 0.049
4,ATATTTACCTTTGTATGTACATATATAAAATATATC [XGTACX_site6367],11.4 ± 0.79
5,ATTGGGTACAAATACACACACATATATATATTAAGA [CACACA_site5330],11.2 ± 0.83
6,AGTGTCATATTAACACGTACATAATTATTGTAGAGA [XGTACX_site568],11.5 ± 1
7,TAATAAATACAAAAATGTACACACATATATATATTT [XGTACX_site7430],11.2 ± 0.83
8,TATATATATATTATCACACACTCACGTTTGACAAAA [CACACA_site689],9.97 ± 0.18
9,TTATTTATTTATTCATGTACGTGTATTTTTTAAAAA [XGTACX_site7915],11.5 ± 0.88
10,GTGGAACATATGAACTCACACACATTTTCACTTAAA [CACACA_site3683],10.2 ± 0.2
11,ATGAACATATCAATTCTCAAAATAGGATGAGAGCAT [CACACA_negctrl_site230],9.83 ± 0.11
12,AATTTTTGTATTTTTAGTACTTAATTTCAAAATAAC [XGTACX_site4234],11.2 ± 0.6
13,AATATTATAAATGTCACACATATATTCAAATATATA [CACACA_site4736],9.875 ± 0.035
14,AAATAATGTTTGAATTGTACACATATTTGTGTTTCT [XGTACX_site4603],11.2 ± 0.79
15,ATGTTGCACAGTGGAAGAATTAAAAATAAATAAATA [XGTACX_negctrl_site581],9.925 ± 0.035
16,GTGGAACGTATATTTTCACACACTCTCAAAAGTACA [CACACA_site8722],11.1 ± 0.69
17,TATTTTGAAACTAAAAGACATAGAGAAAACAAAAAA [CACACA_negctrl_site1306],10.2 ± 0.18
18,ATATAAGGATTAATATGTACATATATATATATATTT [XGTACX_site1390],11.1 ± 0.67
19,TTATGGAATAATCACGTACACACAAGAAAAAAAAAA [CACACA_site526],11.4 ± 0.83
20,GACATTGATACCAGTAGTACCTATAGATGTTTGTTT [XGTACX_site5736],11 ± 0.47
21,TATATACACCCACATACACACAAATAAAAAAACACC [CACACA_site3414],10.7 ± 0.45
22,TTATAGAAAATGGAATAGAATGGAATGGAAGAAATA [CACACA_negctrl_site1086],10.1 ± 0.092
